Out of some 310,000 compounds screened, about 2,200 (0.71%) showed an effect of 50% or more. Effects have a minus sign here. Some of the results follow.
biological target: human ether-à-go-go-related gene (hERG) potassium channel (human, UniProt Q12809); assay: primary screen, population patch clamp on CHO cells stably expressing hERG
Sequence (Q12809 whole entry, looked up): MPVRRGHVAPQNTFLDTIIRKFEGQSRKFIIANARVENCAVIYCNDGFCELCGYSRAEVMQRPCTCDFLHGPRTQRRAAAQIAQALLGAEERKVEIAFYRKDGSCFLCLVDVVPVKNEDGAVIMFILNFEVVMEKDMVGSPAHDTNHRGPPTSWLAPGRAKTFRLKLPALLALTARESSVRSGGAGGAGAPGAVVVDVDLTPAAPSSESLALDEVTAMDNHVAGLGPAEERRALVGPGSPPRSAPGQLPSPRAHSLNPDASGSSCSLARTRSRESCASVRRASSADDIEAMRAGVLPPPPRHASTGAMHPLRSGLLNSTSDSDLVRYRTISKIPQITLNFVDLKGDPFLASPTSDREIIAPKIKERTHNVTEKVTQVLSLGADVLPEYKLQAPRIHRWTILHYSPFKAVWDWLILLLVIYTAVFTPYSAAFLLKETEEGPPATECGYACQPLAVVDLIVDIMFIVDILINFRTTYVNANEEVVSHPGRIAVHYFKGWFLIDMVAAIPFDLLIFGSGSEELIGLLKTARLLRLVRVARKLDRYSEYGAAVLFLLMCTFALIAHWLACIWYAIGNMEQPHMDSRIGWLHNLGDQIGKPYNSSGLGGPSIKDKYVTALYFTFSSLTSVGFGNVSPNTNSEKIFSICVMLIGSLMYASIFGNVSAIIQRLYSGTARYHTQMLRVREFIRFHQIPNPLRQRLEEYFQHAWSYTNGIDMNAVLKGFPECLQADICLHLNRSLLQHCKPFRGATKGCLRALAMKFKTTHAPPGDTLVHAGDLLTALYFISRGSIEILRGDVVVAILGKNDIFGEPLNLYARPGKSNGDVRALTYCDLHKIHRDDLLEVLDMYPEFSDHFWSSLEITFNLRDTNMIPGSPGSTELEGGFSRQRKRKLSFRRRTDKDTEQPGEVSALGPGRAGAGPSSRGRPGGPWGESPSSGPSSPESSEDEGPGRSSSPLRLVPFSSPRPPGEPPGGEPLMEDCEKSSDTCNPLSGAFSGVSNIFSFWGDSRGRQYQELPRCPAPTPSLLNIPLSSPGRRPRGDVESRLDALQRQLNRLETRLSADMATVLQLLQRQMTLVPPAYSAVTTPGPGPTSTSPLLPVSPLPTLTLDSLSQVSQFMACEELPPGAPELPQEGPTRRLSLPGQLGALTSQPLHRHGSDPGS

| Structure (SMILES) | hERG current change (%, negative = inhibition) at 1uM [%] |
| --- | --- |
| COc1ccc(CCNC(=O)c2cc(=O)c3ccc(C)cc3o2)cc1OC | 6.43 |
| Cc1sc(NC(=O)C2CCCO2)c(C#N)c1C (stereo not shown) | 12 |
| CC1CN(C2CCN(C(=O)c3ccccc3Cl)CC2)CC(C)O1 (stereo not shown) | -0.954 |
| COc1cccc(CN(CC2CCCO2)C(=O)c2cc3ccccc3oc2=O)c1 (stereo not shown) | 14 |
| COc1ccc(-c2cccc(NS(=O)(=O)c3cc([N+](=O)[O-])ccc3C)c2)nn1 | 14.7 |
| NC(=O)c1c(NC(=O)C(=O)N2CCOCC2)sc2c1CCC2 | 9.56 |
| O=C(O)CCc1nn2c3ccccc3n(Cc3ccccc3)c2nc1=O | 16 |
| Cc1ccc(C(=O)Nc2ncccc2O)o1 | 20.9 |
| O=[N+]([O-])c1ccc(NCc2ccc3c(c2)OCO3)cc1 | 25.6 |
| O=C(Nc1ccc(C(=O)O)cc1)/C(=C\c1ccco1)NC(=O)c1ccccc1Cl | 8.82 |
| O=c1c2cc(NC(=S)N3CCCC3)ccc2nc2n1CCCCC2 | 3.46 |
| COc1ccc(S(=O)(=O)N(CC(=O)NC2CC2)C2CCCCC2)cc1Cl | 1.59 |
| Cc1cc2ccccn2c1C(=O)c1ccc(Cl)c([N+](=O)[O-])c1 | 9.65 |
| Cc1ccc(CN2CCN(Cc3ccc(C)s3)CC2CCO)cc1 (stereo not shown) | -67.3 |
| Cc1ccc(-n2cc(CN(C)Cc3nccn3C)c(-c3ccc(F)cc3)n2)cc1 | 10.8 |
| Cc1cccc(N2CCN(C(=O)CCS(=O)(=O)c3ccc4c(c3)NC(=O)C(C)S4)CC2)c1C (stereo not shown) | 12.2 |
| O=C(CCCN1C(=O)CSc2ncccc21)N1CCN(c2cccc(C(F)(F)F)c2)CC1 | -18.6 |
| O=C(Nc1ccc(F)cc1Cl)C1=COCCO1 | 8.03 |
| O=C(O)c1cccc(N/N=C(\N=Nc2ccccc2)c2ccccc2)c1 | 16.7 |
| COc1ccc(-c2csc(NC(=O)/C(N=Nc3ccccc3)=C(\C)O)n2)cc1 | 22.8 |
| CC1=CC2(O)OCCN(CCO)C2=CC1=O (stereo not shown) | 4.45 |
| Cc1ccc2sc(N(CCN(C)C)C(=O)c3ccc4ccccc4c3)nc2c1C.Cl | 13.4 |

| Structure (SMILES) | hERG current change (%, negative = inhibition) at 1uM [%] |
| --- | --- |
| Cc1ccc(NC(=S)Nc2c(C)n(C)n(-c3ccccc3)c2=O)cc1Cl | -3.6 |
| CCOC(=O)c1cc(-c2ccccc2C)nn1Cc1cc(C)no1 | 9 |
| C/C(=N\NC(=O)c1ccc2nc[nH]c2c1)c1ccc([N+](=O)[O-])cc1 | 5.62 |
| O=C(Nc1ccc(N2CCN(C(=O)c3ccco3)CC2)cc1)c1ccco1 | 14.7 |
| Cc1ccc(C(=O)Nn2cnnc2)cc1Cl | 15.1 |
| NC(=O)C1(c2ccccc2)OC1c1ccccc1 (stereo not shown) | 18.9 |
| O=C(CCC1CCCCC1)Nc1nncs1 | 4.63 |
| CC(C)(C)OC(=O)C(C(=O)OC(C)(C)C)c1ccc(Cl)nn1 | 12.9 |
| CC(CCc1ccccc1)NC(=O)Cc1ccc([N+](=O)[O-])cc1 (stereo not shown) | 4.14 |
| Cc1ccnc(NS(=O)(=O)c2ccc(NC(=O)c3ccc(S(=O)(=O)N4CCCC4)cc3)cc2)n1 | 12 |
| CCOC(=O)c1[nH]c(C)c(C(=O)OCC)c1C | 1.3 |
| Cc1c(C(=O)O)c(C(=O)O)nc2ccc(N3CCOCC3)cc12 | 10.3 |
| COc1ccc(C(=O)Nc2ccccc2C(=O)N/N=C/c2ccccc2OC)cc1 | 19.1 |
| COc1ccccc1NC(=O)CCSc1nnc(-c2ccncc2)o1 | 7.19 |
| CC(C)C(=O)N1CCC2(CC1)Oc1ccc(Cl)cc1C(=O)C21CC(c2cccnc2)=NO1 (stereo not shown) | 8.56 |
| O=C(COc1ccc(/C=N/NC(=O)c2ccncc2)cc1)Nc1cccc([N+](=O)[O-])c1 | 17.4 |
| COc1ccc(Br)cc1CN(C)CC(=O)Nc1cc([N+](=O)[O-])ccc1OC | 10.9 |
| COCCNC(=O)/C(C#N)=C\c1ccc(CNS(=O)(=O)c2ccc(C)cc2)o1 | 19.9 |
| CCOc1cc2c(cc1OCC)-n1cccc1C(c1cccc([N+](=O)[O-])c1)NC2.Cl (stereo not shown) | -1.51 |
| CC(C)c1ccccc1NC(=O)C1CN(S(=O)(=O)c2ccccc2)CCN1S(=O)(=O)c1ccccc1 (stereo not shown) | 14.1 |
| CCN1C(=O)c2ccc(C(=O)NCc3ccccc3)cc2C1=O | 2.41 |
| Cc1cccc(-c2noc(CN(C(=O)c3c(-c4ccccc4Cl)noc3C)C(C)C)n2)c1 | 5.35 |

| Structure (SMILES) | hERG current change (%, negative = inhibition) at 1uM [%] |
| --- | --- |
| COCCCNC(=O)C1CCN(C(=O)c2cc3sccc3n2Cc2ccc(F)cc2)CC1 | -2.94 |
| O=C(C1=COCCO1)N1CCN(S(=O)(=O)c2cccc(Br)c2)CC1 | 0.865 |
| O=C1NCCCC1C(=O)NCCNC(=O)C(F)(F)F (stereo not shown) | 17.1 |
| CCN1C(=O)/C(=C\c2nc3ccccc3c(=O)n2-c2ccccc2)c2ccccc21 | 12.1 |
| Cc1cccc(N2CCN(C(=O)c3ccc(CNc4c(N5CCC(C)CC5)c(=O)c4=O)cc3)CC2)c1C | 32.6 |
| CCOC(=O)N1CCN(C(=O)c2cc(COc3cccc(C(C)=O)c3)on2)CC1 | 10.5 |
| CN(CC(=O)NCc1ccncc1)S(=O)(=O)c1ccc(Br)cc1 | 3.23 |
| NC1=NC(=O)C(Cc2ccc(F)cc2)S1 (stereo not shown) | 4.95 |
| CCCN(CCC)c1c([N+](=O)[O-])c(=O)oc2ccccc12 | 4.19 |
| Cn1c(=O)c2c(nc(OC/C=C/c3ccccc3)n2C)n(C)c1=O | 8.03 |
| Cc1ccc(/C=C/C(=O)c2ccc([N+](=O)[O-])o2)cc1 | 0.949 |
| O=S(=O)(NCCSc1ccccc1)c1ccc2c(c1)OCCO2 | 9.78 |
| c1ccc(-c2nnsc2-c2ncc[nH]2)cc1 | 6.79 |
| O=C(OCc1c(-c2ccccc2)ncc2ccccc12)c1ccc(Br)cc1 | 14.3 |
| Cc1cc2ncn(/N=C/c3ccc([N+](=O)[O-])o3)c2cc1C | 7.96 |
| Cc1ccc(CS(=O)(=O)CCC(=O)NCCN(C)Cc2ccccc2)cc1 | 0.396 |
| COC(=O)C(Cc1ccccc1)NC(=O)CC(C)CC(=O)Nc1ccc(C)cc1 (stereo not shown) | 12.9 |
| CCCNc1nc(Cl)nc(Nc2ccc(Cl)cc2)n1 | 10.7 |
| C/C(Cl)=C/Cn1c(NCCCn2ccnc2)nc2c1c(=O)[nH]c(=O)n2C | 1.17 |
| COc1ccc(OC)c(/C=C2\S/C(=N/NC(=O)c3ccc4ccccc4c3)NC2=O)c1 | 11.6 |
| Oc1ccc2ccccc2c1C=NC12CN3CCN(CN(C3)C1)C2 | 10.2 |
| COc1cccc(CN2CCN(Cc3ccc(C#CC(C)(C)O)s3)CC2CCO)c1 (stereo not shown) | -3.61 |

| Structure (SMILES) | hERG current change (%, negative = inhibition) at 1uM [%] |
| --- | --- |
| Cc1c(OCC(=O)NCC2CCC(C(=O)O)CC2)ccc2c3c(c(=O)oc12)CCC3 (stereo not shown) | 7.67 |
| Cc1cccc(CN2CCOCCS2(=O)=O)c1 | 12.4 |
| Cc1cccc(NC(=O)CCSc2nnc(Cc3ccccc3)o2)c1 | 5.01 |
| CC(C)CNS(=O)(=O)c1ccc(CCC(=O)N2CCC(C(N)=O)CC2)cc1 | -2.41 |
| COc1ccc(S(N)(=O)=O)cc1C(=O)OCC(=O)NC(C)(C#N)C1CC1 (stereo not shown) | 16 |
| CCCCNC(=O)CCCn1c(=S)[nH]c2cc3c(cc2c1=O)OCO3 | 19.2 |
| CCNC(=O)CN(Cc1ccccc1)S(=O)(=O)c1ccccc1 | 12.5 |
| Cc1cc(C)nc(NC(=O)CSc2ncccn2)n1 | 14.1 |
| COc1cc(OC)nc(-n2ncc(OC)c(Br)c2=O)n1 | 6.67 |
| O=C(Nc1cccc(O)c1)c1ccccc1 | -0.974 |
| CN(C)Cc1c(C(=O)N/N=C/c2ccc(OCc3c(F)cccc3Cl)cc2)nnn1-c1nonc1N | 14.3 |
| O=C(CCCC(=O)OCC(Cl)=C(Cl)Cl)Nc1ccccc1F | 19.5 |
| CCOc1ccc2[nH]c3c(N4CCc5ccccc5C4)ncnc3c2c1 | 14.1 |
| CCC(=O)NC1=C(C#N)C2(CCCC2)Cc2ccccc21 | 4.39 |
| O=C(c1ccc(CS(=O)(=O)c2ccccc2)o1)N1CCC2(CC1)OCCO2 | -3.2 |
| CCOc1ccc(/C=C2\SC(=S)NC2=O)cc1OC | 16.7 |
| COc1cc(/C=C2\SC(=S)N(CCC(=O)N3CCCCC3)C2=O)cc(OC)c1OC | 0.0963 |
| CC1=C(C(=O)OC2CCCC2)C(c2ccc(C)o2)C2=C(CC(c3cccs3)CC2=O)N1 (stereo not shown) | -6.87 |
| CCC(CO)Oc1cc(NC(=O)c2ccc(F)cc2)c2ncn(C(C)C)c2c1 (stereo not shown) | 12.6 |
| CC1Cc2ccccc2N1C(=O)CSc1nnc(CNc2ccccc2)o1 (stereo not shown) | 3.55 |
| COc1ccccc1C(=O)N/N=C(\C)c1cccnc1 | 5.19 |
| Cc1ccc(NC(=O)COC(=O)c2ccc(Br)o2)cc1S(=O)(=O)N1CCCCC1 | 11.8 |
